Experimental data as given in publication PMC12820563, “FoxP3 forms a head-to-head dimer in vivo and stabilizes its multimerization on adjacent microsatellites”.
Some of the results follow.

These sequences were tested against T1, MBP-FoxP1dN (Mus musculus, UniProt P58462 326-579) (assay: PD-seq (MBP pull-down with sequencing); 20 mM Tris-HCl pH 7.5, 100 mM NaCl, 1.5 mM MgCl2, 0.4 uM protein, 0.1 uM dsDNA library, 30 min, room temperature, amylose pull-down; high values mean tight binding). Conditions: protein: recombinant; tags: His6-MBP; chain copies: 2; dsDNA, one strand shown.
T1 sequence: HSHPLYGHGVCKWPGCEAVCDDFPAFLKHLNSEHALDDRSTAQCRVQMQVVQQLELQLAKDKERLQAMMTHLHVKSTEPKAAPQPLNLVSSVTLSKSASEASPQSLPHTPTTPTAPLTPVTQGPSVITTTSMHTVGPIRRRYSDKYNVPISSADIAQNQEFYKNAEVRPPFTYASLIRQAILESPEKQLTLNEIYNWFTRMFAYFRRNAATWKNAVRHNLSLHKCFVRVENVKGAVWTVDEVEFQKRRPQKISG
Method in brief: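 A degenerate double-stranded DNA library, filled in with Klenow, was added at 0.1 µM to 0.4 µM His6-MBP-tagged mouse FoxP3 or FoxP1 fragment lacking the N-terminus, expressed in E. coli. Incubation lasted 30 min at room temperature in Tris pH 7.5 buffer with NaCl and MgCl2, after which complexes were collected on amylose resin, washed three times, digested with proteinase K to free the DNA, barcoded by PCR and sequenced by Illumina. Binding is the pooled-replicate reads-per-million enrichment of pull-down over input.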
In the case of “GATGATTGTTCTCCCAGCTGATGAATTGGACCACTCGAGTAAACAAATTTTCCTAATCTTTCTGTTCAAGCGCCATCTAC”, the binding signal is reported as 0.821 RPM ratio (pull-down/input). With “GATGATTGTTCTCCCAGCTGATGAATTGCAGGACTCGAGTAAACAAATTTTCCTAATCTTTCTGTTCAAGCGCCATCTAC” the binding signal was 1.04 RPM ratio (pull-down/input). With “GATGATTGTTCTCCCAGCTGATGAATTCTTCGCTTCGAGTAAACAAATTTTCCTAATCTTTCTGTTCAAGCGCCATCTAC” the binding signal was 0.889 RPM ratio (pull-down/input). With “GATGATTGTTCTCCCAGCTGATGAATTCAGCGGATCGAGTAAACAAATTTTCCTAATCTTTCTGTTCAAGCGCCATCTAC” the binding signal was 0.793 RPM ratio (pull-down/input). With “GATGATTGTTCTCCCAGCTGATGAATTTGAATGGTCGAGTAAACAAATTTTCCTAATCTTTCTGTTCAAGCGCCATCTAC” the binding signal was 0.784 RPM ratio (pull-down/input). For “GATGATTGTTCTCCCAGCTGATGAATTTGTACGGTCGAGTAAACAAATTTTCCTAATCTTTCTGTTCAAGCGCCATCTAC”, the binding signal was 0.999 RPM ratio (pull-down/input). In the case of “GATGATTGTTCTCCCAGCTGATGAATTGGGCCTTTCGAGTAAACAAATTTTCCTAATCTTTCTGTTCAAGCGCCATCTAC”, the binding signal is reported as 0.774 RPM ratio (pull-down/input). In the case of “GATGATTGTTCTCCCAGCTGATGAATTACTCGTATCGAGTAAACAAATTTTCCTAATCTTTCTGTTCAAGCGCCATCTAC”, the binding signal is reported as 1.17 RPM ratio (pull-down/input). With “GATGATTGTTCTCCCAGCTGATGAATTTGGATCTTCGAGTAAACAAATTTTCCTAATCTTTCTGTTCAAGCGCCATCTAC” the binding signal was 0.87 RPM ratio (pull-down/input). “GATGATTGTTCTCCCAGCTGATGAATTTCACGCGTCGAGTAAACAAATTTTCCTAATCTTTCTGTTCAAGCGCCATCTAC” was tested, and the binding signal was 0.963 RPM ratio (pull-down/input). With “GATGATTGTTCTCCCAGCTGATGAATTCATCACGTCGAGTAAACAAATTTTCCTAATCTTTCTGTTCAAGCGCCATCTAC” the binding signal was 0.907 RPM ratio (pull-down/input). In the case of “GATGATTGTTCTCCCAGCTGATGAATTCCACCCATCGAGTAAACAAATTTTCCTAATCTTTCTGTTCAAGCGCCATCTAC”, the binding signal is reported as 0.823 RPM ratio (pull-down/input). “GATGATTGTTCTCCCAGCTGATGAATTTGGCCTATCGAGTAAACAAATTTTCCTAATCTTTCTGTTCAAGCGCCATCTAC” was tested, and the binding signal was 0.852 RPM ratio (pull-down/input). In the case of “GATGATTGTTCTCCCAGCTGATGAATTTATACCCTCGAGTAAACAAATTTTCCTAATCTTTCTGTTCAAGCGCCATCTAC”, the binding signal is reported as 1.02 RPM ratio (pull-down/input). With “GATGATTGTTCTCCCAGCTGATGAATTGCCGAACTCGAGTAAACAAATTTTCCTAATCTTTCTGTTCAAGCGCCATCTAC” the binding signal was 0.889 RPM ratio (pull-down/input). “GATGATTGTTCTCCCAGCTGATGAATTTGCAATTTCGAGTAAACAAATTTTCCTAATCTTTCTGTTCAAGCGCCATCTAC” was tested, and the binding signal was 1.22 RPM ratio (pull-down/input). In the case of “GATGATTGTTCTCCCAGCTGATGAATTTTCGTAGTCGAGTAAACAAATTTTCCTAATCTTTCTGTTCAAGCGCCATCTAC”, the binding signal is reported as 1.04 RPM ratio (pull-down/input). With “GATGATTGTTCTCCCAGCTGATGAATTCGCTTTGTCGAGTAAACAAATTTTCCTAATCTTTCTGTTCAAGCGCCATCTAC” the binding signal was 0.807 RPM ratio (pull-down/input). “GATGATTGTTCTCCCAGCTGATGAATTGGTATCGTCGAGTAAACAAATTTTCCTAATCTTTCTGTTCAAGCGCCATCTAC” was tested, and the binding signal was 1.04 RPM ratio (pull-down/input). For “GATGATTGTTCTCCCAGCTGATGAATTCAGAATTTCGAGTAAACAAATTTTCCTAATCTTTCTGTTCAAGCGCCATCTAC”, the binding signal was 0.888 RPM ratio (pull-down/input). With “GATGATTGTTCTCCCAGCTGATGAATTTACACCGTCGAGTAAACAAATTTTCCTAATCTTTCTGTTCAAGCGCCATCTAC” the binding signal was 1.14 RPM ratio (pull-down/input). For “GATGATTGTTCTCCCAGCTGATGAATTCTGGCGCTCGAGTAAACAAATTTTCCTAATCTTTCTGTTCAAGCGCCATCTAC”, the binding signal was 0.806 RPM ratio (pull-down/input). With “GATGATTGTTCTCCCAGCTGATGAATTATCACTCTCGAGTAAACAAATTTTCCTAATCTTTCTGTTCAAGCGCCATCTAC” the binding signal was 0.986 RPM ratio (pull-down/input). With “GATGATTGTTCTCCCAGCTGATGAATTAGAATGATCGAGTAAACAAATTTTCCTAATCTTTCTGTTCAAGCGCCATCTAC” the binding signal was 0.914 RPM ratio (pull-down/input). With “GATGATTGTTCTCCCAGCTGATGAATTCCGTTTTTCGAGTAAACAAATTTTCCTAATCTTTCTGTTCAAGCGCCATCTAC” the binding signal was 0.919 RPM ratio (pull-down/input). In the case of “GATGATTGTTCTCCCAGCTGATGAATTTTCGTGCTCGAGTAAACAAATTTTCCTAATCTTTCTGTTCAAGCGCCATCTAC”, the binding signal is reported as 0.896 RPM ratio (pull-down/input). “GATGATTGTTCTCCCAGCTGATGAATTTTGAGGTTCGAGTAAACAAATTTTCCTAATCTTTCTGTTCAAGCGCCATCTAC” was tested, and the binding signal was 0.883 RPM ratio (pull-down/input). In the case of “GATGATTGTTCTCCCAGCTGATGAATTAGCGTCGTCGAGTAAACAAATTTTCCTAATCTTTCTGTTCAAGCGCCATCTAC”, the binding signal is reported as 0.918 RPM ratio (pull-down/input). With “GATGATTGTTCTCCCAGCTGATGAATTGCGATGATCGAGTAAACAAATTTTCCTAATCTTTCTGTTCAAGCGCCATCTAC” the binding signal was 1.11 RPM ratio (pull-down/input). “GATGATTGTTCTCCCAGCTGATGAATTATCCAGATCGAGTAAACAAATTTTCCTAATCTTTCTGTTCAAGCGCCATCTAC” was tested, and the binding signal was 0.867 RPM ratio (pull-down/input). “GATGATTGTTCTCCCAGCTGATGAATTTAAGAAATCGAGTAAACAAATTTTCCTAATCTTTCTGTTCAAGCGCCATCTAC” was tested, and the binding signal was 1.07 RPM ratio (pull-down/input). In the case of “GATGATTGTTCTCCCAGCTGATGAATTGCGAACATCGAGTAAACAAATTTTCCTAATCTTTCTGTTCAAGCGCCATCTAC”, the binding signal is reported as 1.15 RPM ratio (pull-down/input).
